Our source for the binding signal values is paper PMC9911399, “Two distinct binding modes provide the RNA-binding protein RbFox with extraordinary sequence specificity”.

The labels stand for the following.
B1: GUGGUGU (DNA:RNA)
RNA: GGGAGACCGGAAUUCAGAUUGUCCGUGGUGUUUAAAUCCCGUCGUAGCCACCA
DNA 1: CAATCTGAATTCCGGTCTCCC
DNA 2: TGGTGGCTACGACGGGATT
B2: AUAGAUG (DNA:RNA)
RNA: B1 RNA with G25A, G27A, U29A, G30U, U31G
DNA 1: CAATCTGAATTCCGGTCTCCC
DNA 2: TGGTGGCTACGACGGGATT
B3: CCACCAA (DNA:RNA)
RNA: GGGAGACCGGAAUUCAGAUUGUCCCCACCAAUUAAAUCCCGUCGUAGCCACCA
DNA 1: CAATCTGAATTCCGGTCTCCC
DNA 2: TGGTGGCTACGACGGGATT
B4: AGCCAUG (DNA:RNA)
RNA: B3 RNA with C25A, C26G, A27C, C29A, A30U, A31G
DNA 1: CAATCTGAATTCCGGTCTCCC
DNA 2: TGGTGGCTACGACGGGATT
B5: CGUCCCC (DNA:RNA)
RNA: B3 RNA with C26G, A27U, A30C, A31C
DNA 1: CAATCTGAATTCCGGTCTCCC
DNA 2: TGGTGGCTACGACGGGATT
B6: UGCAACC (DNA:RNA)
RNA: GGGAGACCGGAAUUCAGAUUGUCCUGCAACCUUAAAUCCCGUCGUAGCCACCA
DNA 1: CAATCTGAATTCCGGTCTCCC
DNA 2: TGGTGGCTACGACGGGATT
B7: AUAGUGG (DNA:RNA)
RNA: B1 RNA with G25A, G27A, U31G
DNA 1: CAATCTGAATTCCGGTCTCCC
DNA 2: TGGTGGCTACGACGGGATT
B8: UUCCACG (DNA:RNA)
RNA: B6 RNA with G26U, A28C, C31G
DNA 1: CAATCTGAATTCCGGTCTCCC
DNA 2: TGGTGGCTACGACGGGATT
B9: CUCUCUG (DNA:RNA)
RNA: B3 RNA with C26U, A27C, C28U, A30U, A31G
DNA 1: CAATCTGAATTCCGGTCTCCC
DNA 2: TGGTGGCTACGACGGGATT
B10: GAAAUCA (DNA:RNA)
RNA: B3 RNA with C25G, C26A, C28A, C29U, A30C
DNA 1: CAATCTGAATTCCGGTCTCCC
DNA 2: TGGTGGCTACGACGGGATT
B11: CGUAAGA (DNA:RNA)
RNA: B6 RNA with U25C, C27U, C30G, C31A
DNA 1: CAATCTGAATTCCGGTCTCCC
DNA 2: TGGTGGCTACGACGGGATT
B12: UAAGGUC (DNA:RNA)
RNA: B6 RNA with G26A, C27A, A28G, A29G, C30U
DNA 1: CAATCTGAATTCCGGTCTCCC
DNA 2: TGGTGGCTACGACGGGATT
B13: GCGGUCG (DNA:RNA)
RNA: B1 RNA with U26C, G30C, U31G
DNA 1: CAATCTGAATTCCGGTCTCCC
DNA 2: TGGTGGCTACGACGGGATT
B14: UUGGUCA (DNA:RNA)
RNA: B1 RNA with G25U, G30C, U31A
DNA 1: CAATCTGAATTCCGGTCTCCC
DNA 2: TGGTGGCTACGACGGGATT
B15: GUUAUGU (DNA:RNA)
RNA: B1 RNA with G27U, G28A
DNA 1: CAATCTGAATTCCGGTCTCCC
DNA 2: TGGTGGCTACGACGGGATT
B16: UAUUUAU (DNA:RNA)
RNA: B1 RNA with G25U, U26A, G27U, G28U, G30A
DNA 1: CAATCTGAATTCCGGTCTCCC
DNA 2: TGGTGGCTACGACGGGATT
B17: UGCCAGU (DNA:RNA)
RNA: B6 RNA with A28C, C30G, C31U
DNA 1: CAATCTGAATTCCGGTCTCCC
DNA 2: TGGTGGCTACGACGGGATT
B18: GUUUACA (DNA:RNA)
RNA: B1 RNA with G27U, G28U, U29A, G30C, U31A
DNA 1: CAATCTGAATTCCGGTCTCCC
DNA 2: TGGTGGCTACGACGGGATT
B19: CCGUCAC (DNA:RNA)
RNA: B3 RNA with A27G, C28U, A31C
DNA 1: CAATCTGAATTCCGGTCTCCC
DNA 2: TGGTGGCTACGACGGGATT
B20: CGGAACU (DNA:RNA)
RNA: B6 RNA with U25C, C27G, C31U
DNA 1: CAATCTGAATTCCGGTCTCCC
DNA 2: TGGTGGCTACGACGGGATT

Positions count from the first letter of the chain named. This is one part of the list.

The target in the experiment is T1, RBFOX1 RRM RbFoxmut (Fox-RRM*) (Homo sapiens, UniProt Q9NWB1 109-208, R118D;E147R;N151S;E152T).
T1 sequence: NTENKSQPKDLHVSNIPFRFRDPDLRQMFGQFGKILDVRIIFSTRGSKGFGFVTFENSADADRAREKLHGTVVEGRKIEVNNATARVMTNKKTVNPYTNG
Put plainly: EMSA; HiTS-Eq, 1 nM pool, 10 min; buffer printed only for the single-RNA assays: 10 mM Tris pH 7.5, 150 mM NaCl, 3.4 mM EDTA, 0.001% NP-40, 30 C. Particulars: tags: His6 N-terminal (pET28a); label: 5' 32P. The essentials: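 These values rest on relative association constants, computed from read-count changes of each RNA species versus the control reaction and normalised to the cognate motif. Reads came from free RNA recovered by 8% native PAGE after purified RbFox RRM (wild type or mutant) at increasing concentrations was equilibrated for 10 min in 50 µL with 1 nM of a 5′-radiolabelled pool with 7 randomized nucleotides and DNA-annealed flanks.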
On to B1, for which the binding signal is 0.208 KA relative to UGCAUGU.
On to B2, for which the binding signal was 0.141 KA relative to UGCAUGU.
The figure for B3 is 0.108 KA relative to UGCAUGU; for B4 it is 0.163 KA relative to UGCAUGU.
As to B5, the binding signal was 0.048 KA relative to UGCAUGU.
The figure for B6 is 0.0791 KA relative to UGCAUGU; for B7 it is 0.107 KA relative to UGCAUGU.
As for B8, the binding signal is 0.0996 KA relative to UGCAUGU.
As to B9, the binding signal is 0.0547 KA relative to UGCAUGU.
To B10 belongs 0.0661 KA relative to UGCAUGU.
To B11 belongs 0.0927 KA relative to UGCAUGU; to B12, 0.0829 KA relative to UGCAUGU; to B13, 0.17 KA relative to UGCAUGU.
On to B14, for which the binding signal is 0.14 KA relative to UGCAUGU.
For B15, the binding signal was 0.268 KA relative to UGCAUGU.
In the case of B16, the binding signal was 0.0992 KA relative to UGCAUGU.
For the molecule B17, the binding signal is 0.0904 KA relative to UGCAUGU.
To B18 belongs 0.136 KA relative to UGCAUGU.
With B19, the binding signal was 0.0656 KA relative to UGCAUGU.
The figure for B20 is 0.0603 KA relative to UGCAUGU.
